From PubChem BioAssay AID2675 (National Center for Advancing Translational Sciences (NCATS), 2010)
In all, about 280,000 compounds went through this assay and about 100 (0.036%) were called active. Inconclusive means that the source gave no clear call. Such entries were picked first, then a sample of the others. Calls come from the whole dose curve; as a rule, active = well fitted inhibition curve with a large enough effect in the signal ratio, with a control signal flat (not every such curve was filed as active); inconclusive = small, poorly fitted or top-dose-only effect, or effect the other way, or a change in a side signal; inactive = no such curve, though single readings can be large or run the other way; the % refers to the signal ratio. Potencies beside an inconclusive call are fits to weak or partial responses and may not hold up. A note “side channel” means that the fit belongs to a control or component signal, not to the main read-out.

target: Muscleblind-like protein 1 (Homo sapiens) (UniProt Q9NR56); experiment: qHTS Assay for Inhibitors of MBNL1-poly(CUG) RNA binding; settings: TR-FRET MBNL1-His/biotin-(CUG)12 binding, 665/545 ratio; series mostly up to 57.5 µM
UniProt Q9NR56, sequence (Q9NR56 whole entry, looked up): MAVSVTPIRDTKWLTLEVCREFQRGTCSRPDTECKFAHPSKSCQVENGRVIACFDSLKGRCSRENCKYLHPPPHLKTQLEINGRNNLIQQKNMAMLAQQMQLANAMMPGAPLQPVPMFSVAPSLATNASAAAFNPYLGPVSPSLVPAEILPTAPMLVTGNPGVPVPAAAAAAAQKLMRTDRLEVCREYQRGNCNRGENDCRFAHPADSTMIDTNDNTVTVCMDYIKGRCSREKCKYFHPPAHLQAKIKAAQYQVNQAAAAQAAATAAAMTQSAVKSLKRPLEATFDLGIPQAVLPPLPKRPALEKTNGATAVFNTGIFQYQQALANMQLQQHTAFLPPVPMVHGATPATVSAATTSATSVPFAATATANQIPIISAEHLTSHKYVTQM
How it was run: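 Inhibition of protein-RNA binding appears as loss of TR-FRET between terbium anti-His antibody on MBNL1-His and streptavidin-XL665 on biotin-(CUG)12. Activity is normalized to buffer-only and uninhibited-complex controls.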
Potency is the fitted concentration of half-maximal effect; tags give direction and shape of the fitted curve or compound fluorescence and quenching.

| Compound | Potency |
| --- | --- |
| COc1cccc(/C=N/NC(=O)Cn2nc([N+](=O)[O-])cc2C)c1 | inconclusive: 15.8 µM [quencher, side channel, partial curve] |
| O=C(NNS(=O)(=O)c1ccc([N+](=O)[O-])cc1)c1ccncc1 | inconclusive: 17.8 µM [quencher, side channel, partial curve] |
| COCc1cc(C)nc2sc(C(=O)Nc3cccc(OC)c3)c(N)c12 | inconclusive: 14.1 µM [quencher, side channel, partial curve] |
| COc1ccc(/C=N/NC(=O)C(C)n2nnc3ccccc32)cc1OC (stereo not given) | inconclusive: 25.1 µM [quencher, side channel, single point] |
| CN(C)c1ccc(/C=N/NC(=O)Cn2nnc3ccccc32)cc1 | inconclusive: 28.2 µM [quencher, side channel, single point] |
| C(=N\Nc1ccc2nncn2n1)/c1ccco1 | inconclusive: 22.4 µM [quencher, side channel, single point] |
| CCOc1ccc2ccccc2c1/C=N/NC(=O)c1ccncc1 | inconclusive: 11.2 µM [quencher, side channel, partial curve] |
| COc1cc(/C=C(\C#N)C(=O)c2c[nH]c3ccccc23)cc(OC)c1O | inconclusive: 22.4 µM [quencher, side channel, partial curve] |
| Cc1ccc(N=Cc2sc(O)c3ccccc23)c(C)c1 | inconclusive: 39.8 µM [quencher, side channel, single point] |
| CCOC(=O)c1cc2c(nc1NC(=S)Nc1ccccc1)CC(C)(C)OC2 | inconclusive: 1.26 µM [fluorescent, side channel, partial curve] |
| CCCCCCCNC(=O)c1ccc(N2CCC3(CC2)OCCO3)c([N+](=O)[O-])c1 | inconclusive: 22.4 µM [quencher, side channel, partial curve, poor fit] |
| c1ccc(CCNc2ncnc3ccccc23)cc1 | inactive |
| O=C1C=C(NCc2ccc(Cl)c(Cl)c2)CC1 | inactive |
| O=C(Nc1ccc2snnc2c1)N1CCSCC1 | inactive |
| Cc1ccc(C(=O)N/N=C\C=C\c2ccc(Br)cc2)cn1 | inconclusive: 3.55 µM [quencher, side channel, full curve] |
| COCCNCCCCOc1ccc(C)cc1[N+](=O)[O-] | inactive |
| CC(OC(=O)CCCc1nc2ccccc2s1)C(=O)NC(N)=O (stereo not given) | inactive |
| COc1ccc(N2CSC3=C(C#N)C(c4cc(OC)c(OC)cc4OC)CC(=O)N3C2)c(OC)c1 (stereo not given) | inconclusive: 35.5 µM [quencher, side channel, single point] |
| Cc1ccc(-c2nc(N=Nc3ccc(O)cc3)n[nH]2)cc1 | inconclusive: 12.6 µM [quencher, side channel, partial curve] |
| CCCN1CCC(=O)N([C@H](COc2ccccc2)c2ccccc2)CC1 | inactive |

| Compound | Potency |
| --- | --- |
| Cc1noc(C)c1C(=O)N1CCCC(C(=O)c2ccc(Cl)cc2)C1 (stereo not given) | inactive |
| O=C(O)c1ccc(NC(=O)C2CCCCC2)cc1 | inconclusive: 0.891 µM [quencher, side channel, single point] |
| O=C(c1ccccc1)c1ccc(-n2ccnc2)c([N+](=O)[O-])c1 | inconclusive: 10 µM [quencher, side channel, partial curve] |
| C=CCNC(=S)NC(=O)c1csc([N+](=O)[O-])c1 | inconclusive: 14.1 µM [quencher, partial curve] |
| Cc1cccc(NS(=O)(=O)Cc2ccccc2)n1 | inactive |
| CC(C)C[C@@H]1NC(=O)[C@H](C(C)C)NC(=O)c2cc([N+](=O)[O-])cc(I)c2OCC[C@@H](C(N)=O)NC1=O | inconclusive: 14.1 µM [quencher, side channel, partial curve] |
| O=C(NC1CCCCCCC1)c1cc([N+](=O)[O-])ccc1Cl | inconclusive: 22.4 µM [quencher, side channel, partial curve] |
| COc1cccc(Nc2nc(-c3ccccc3O)nc3ccccc23)c1 | inconclusive: 31.6 µM [fluorescent, side channel, single point] |
| COc1ccc(CNS(=O)(=O)c2cc(CN3C(=O)c4cccnc4C3=O)ccc2OC)cc1 | inconclusive: 7.94 µM [quencher, side channel, partial curve] |
| CN(C)CCCN(C(=O)c1ccc([N+](=O)[O-])s1)c1nc2cc3c(cc2s1)OCCO3 | inconclusive: 11.2 µM [quencher, side channel, partial curve] |
| O=C(CNC(=O)c1ccccc1Cl)Nc1ccc(F)cc1 | inconclusive: 0.562 µM [fluorescent, side channel, partial curve] |
| Cc1ccc(C(=O)N/C(=C\c2cccc([N+](=O)[O-])c2)C(=O)NCc2ccncc2)cc1 | inconclusive: 17.8 µM [quencher, side channel, partial curve] |
| CCc1ccc(-c2ccc3nnc(SCC(N)=O)n3n2)cc1 | inconclusive: 31.6 µM [quencher, side channel, single point] |
| O=[N+]([O-])c1ccc(S(=O)(=O)N2CCN(Cc3c[nH]c4ccccc34)CC2)cc1 | inconclusive: 8.91 µM [quencher, side channel, partial curve] |
| COCc1cc(C)nc2sc(C(=O)Nc3ccccc3OC)c(N)c12 | inconclusive: 12.6 µM [quencher, side channel, partial curve] |
| COCCNC(=O)c1cccc(OC2CCN(Cc3cccc(C(C)=O)c3)CC2)c1 | inactive |
| Cc1ccc2oc(=O)c3cc(C(=O)NCCCN4CCc5ccccc5C4)sc3c2c1 | inconclusive: 15.8 µM [quencher, side channel, partial curve] |
| O=C1NCCN/C1=C\C(=O)c1ccc(F)cc1 | inconclusive: 12.6 µM [quencher, side channel, partial curve] |
| O=c1[nH]cnc(O)c1N=Nc1ccccc1 | inconclusive: 15.8 µM [quencher, partial curve] |
| Cc1nc(NCC2CCCO2)c2nnn(Cc3c(F)cccc3Cl)c2n1 (stereo not given) | inconclusive: 7.08 µM [fluorescent, side channel, single point] |

| Compound | Potency |
| --- | --- |
| CCOC(=O)COn1c(=O)c(-c2ccc(Cl)cc2)[n+]([O-])c2ccccc21 | inconclusive: 1.78 µM [quencher, side channel, full curve, poor fit] |
| CCOC(=O)N1CCC(NC(=O)C2CCN(S(=O)(=O)N3CCC(C)CC3)CC2)CC1 | inconclusive: 63.1 µM [inhibitor, single point] |
| O=C(Cc1cc(=O)[nH][nH]1)N/N=C/c1ccccc1[N+](=O)[O-] | inconclusive: 14.1 µM [quencher, side channel, partial curve] |
| CC(C)(C)c1ccc(CN(Cc2ccco2)Cc2nnnn2C2CCCC2)cc1 | inactive |
| CCOC(=O)c1c(-c2ccc(C)o2)csc1NC(=O)CSc1nncs1 | inactive |
| CCN(CC(=O)Nc1c(C(=O)OC)[nH]c2ccc(C)cc12)c1ccc2c(c1)OCO2 | inactive |
| COc1ccc(C2CC(C)(c3ccc(OC)cc3OC)Nc3ccccc3N2)c(OC)c1 (stereo not given) | inconclusive: 10 µM [quencher, side channel, partial curve] |
| O=C1NC(=O)[C@@H]2C3c4ccccc4C=CN3[C@H](C(=O)c3cccs3)[C@H]12 (stereo not given in full) | inconclusive: 20 µM [quencher, side channel, partial curve] |
| CCOC(=O)N1CCN(C2=C(NS(=O)(=O)c3ccc(NC(C)=O)cc3)C(=O)c3ccccc3C2=O)CC1 | inconclusive: 7.08 µM [quencher, side channel, partial curve] |
| CC(=O)NCCn1c(SCC#N)nc2ccccc2c1=O | inactive |
| CCC(=O)Nc1ccc(C(=O)Nc2ccc(OC)cc2[N+](=O)[O-])cc1 | inconclusive: 1.58 µM [quencher, side channel, partial curve] |
| CCN1C(=O)/C(=C2/C=Cc3ccccc3N2CC)SC1=S | inconclusive: 14.1 µM [quencher, side channel, partial curve] |
| Cc1cccn2c(=O)c3cc(C(=O)NC4CCCC4)sc3nc12 | inconclusive: 8.91 µM [quencher, side channel, partial curve] |
| O=C1c2ccsc2SCCN1Cc1c(Cl)cccc1Cl | inactive |
| O=C(O)c1cc2nccc(-c3ccco3)n2n1 | inconclusive: 15.8 µM [quencher, side channel, partial curve] |
| CC(=O)Nc1ccc(NC(=O)Cc2ccc(S(=O)(=O)N3CCCCC3)s2)cc1 | inconclusive: 2.82 µM [quencher, side channel, single point] |
| COc1ccc(CC(=O)NNS(=O)(=O)c2cccc([N+](=O)[O-])c2)cc1OC | inconclusive: 22.4 µM [quencher, side channel, partial curve, poor fit] |
| Cc1ccc2[nH]c(C)c(/C=C/c3cc[n+](C)cc3)c2c1 | inconclusive: 3.16 µM [quencher, side channel, partial curve] |
| Cc1ccc(/C=N/NC(=O)c2c[nH]c3ccccc23)o1 | inconclusive: 22.4 µM [quencher, side channel, single point] |
| Cc1cc(C(=O)O)ccc1-n1c(C)cc(C=C2C(=O)c3ccccc3C2=O)c1C | inconclusive: 11.2 µM [quencher, side channel, partial curve] |
